In PubChem BioAssay AID686978 (National Center for Advancing Translational Sciences (NCATS), 2013):
“And” between values parts separate entries of the source, which are not always exact repeats. Equal values may be shown once. The campaign covered roughly 420,000 compounds. About 64,000 (15%) were called active. The inconclusive results got no clear call from the source; some entries with a clear call stand among them for comparison. Calls come from the whole dose curve; as a rule, active = well fitted inhibition curve with a large enough effect; inconclusive = small, poorly fitted or top-dose-only effect; inactive = flat fitted curve, though single readings scatter. Where the call is inconclusive, the potency comes from a doubtful curve fit.

Assay: qHTS for Inhibitors of human tyrosyl-DNA phosphodiesterase 1 (TDP1): qHTS in cells in absence of CPT; note: nearly all actives have a fitted effect of over 55% in size
Conditions: DT40 Tdp1-/- hTDP1 cells, no CPT, ATP luminescence, 48 h; series mostly up to 46.2 µM
Method in brief: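 No-CPT arm: Tdp1-/-;hTDP1 DT40 cells (400/well) plus compounds, incubated ≥48 hr at 37 °C. Readout CellTiter-Glo luminescence.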
Potency is the fitted concentration of half-maximal effect; tags give direction and shape of the fitted curve.

| Structure (SMILES) | Potency |
| --- | --- |
| CCOc1ccc(-c2nnc(SCC(=O)N3CCCC3)o2)cc1 | inconclusive: 29.1 µM [inhibitor, single point] |
| CN1c2ccsc2/C(=N/Nc2ccccc2)CS1(=O)=O | active: 1.3 µM |
| Fc1ccc(-c2nc3c4ccccc4ccn3c2Cc2ccccc2C(F)(F)F)cc1 | inconclusive: 20.6 µM [inhibitor, single point] |
| Cc1ccc(S(=O)(=O)N2CCN(c3nc(-c4cccs4)nc(C)c3C)CC2)cc1 | inactive |
| O=C(Cc1ccc(F)cc1)Nc1nc(-c2ccc(F)c(F)c2)cs1 | inconclusive: 1.84 µM [inhibitor, full curve] |
| CC[C@]12c3[nH]c4cc(CCC(=O)N(C)C)ccc4c3CCN1C(=O)[C@@H](CC(=O)NCc1cccc(C(F)(F)F)c1)C[C@@H]2C(=O)N1CCN(C(=O)c2ccco2)CC1 | inconclusive: 16.4 µM [inhibitor, single point] |
| Cc1cccc(NC(=O)Nc2cnccn2)c1C | inactive |
| CC(C)c1nc(CNC(=O)C2CCC(=O)N(CCc3ccc(Cl)cc3)C2)no1 (stereo not given) | inactive |
| CCC(C)[C@H]1COCCS(=O)(=O)N1Cc1ccccc1F (stereo not given in full) | inconclusive: 25.1 µM [inhibitor, single point] and inconclusive: 13 µM [inhibitor, partial curve] |
| Cc1ccc(C(=O)Nc2sc(C)c(-c3ccccc3)c2C(N)=O)cc1[N+](=O)[O-] | active: 18.4 µM |
| CCOc1ccc(N2CC(C(=O)NCCc3ccc(F)cc3)CC2=O)cc1 (stereo not given) | inactive |
| O=C(NCCc1cccs1)Nc1nnc([C@H]2C[C@H](O)[C@@H](CO)O2)s1 | inactive |
| COc1ccc2c(Cl)c(C(=O)N/N=C/c3c(C)[nH]c4ccccc34)sc2c1 | inconclusive: 20.6 µM [inhibitor, single point] |
| Cc1ccc(-n2ncc3c(NCc4ccccc4)ncnc32)cc1Cl | inconclusive: 10.3 µM [inhibitor, partial curve] |
| O=C(c1cccc(F)c1)N1CCC[C@@]2(CCN(C(c3ccccc3)c3ccccc3)C2)C1 | inconclusive: 29.1 µM [inhibitor, single point] |
| COc1ccc(-c2c(C)nc3c(-c4ccccn4)cnn3c2N)cc1 | active: 18.4 µM |
| COCc1c(C(=O)OCc2nc3ccsc3c(=O)[nH]2)oc2ccccc12 | inactive |
| CCNC(=O)C1(C)CCCN(C(=O)CCc2cccs2)C1 (stereo not given) | inactive |
| CCOc1ccccc1C(=O)NCc1ccco1 | inconclusive: 29.1 µM [inhibitor, single point] |
| CC1=Nc2ccccc2N=C(NC(=O)CSC(=S)N2CCCCC2)C1c1ccccc1 (stereo not given) | inconclusive: 18.4 µM [inhibitor, single point] |
| COC(=O)[C@@]1(Cc2ccc(F)cc2)[C@H]2c3cc(C(=O)N4CCCC4)n(C)c3C[C@H]2CN1C(=O)c1ccccc1 | active: 16.4 µM |
| CCc1ccccc1NC(=O)CNCC(=O)Nc1ccccc1CC | inactive |
| COc1ccccc1CNC(=O)CCn1c(=O)oc2ccccc21 | inactive |
| O=C(C[C@H]1C/C=C\C[C@H](Cc2ccc(F)cc2)C(=O)O[C@@H](c2ccccc2)CNC1=O)N[C@@H](CO)Cc1ccccc1 | active: 11.6 µM |

| Structure (SMILES) | Potency |
| --- | --- |
| O=C(N/N=C/c1ccc(Cl)cc1Cl)c1ccc2nc[nH]c2c1 | inconclusive: 23.1 µM [inhibitor, single point] |
| COc1cc(C(=O)NCc2nnc(SCC(=O)c3ccc(Cl)cc3)o2)cc(OC)c1OC | inconclusive: 29.1 µM [inhibitor, single point] |
| COc1ccc(C(C)=O)cc1CSCCC#N | inconclusive: 20.6 µM [inhibitor, single point] |
| Cc1ccccc1C(=O)NCC(=O)OC(C)C(=O)NC(C)CCc1ccccc1 (stereo not given) | inconclusive: 32.6 µM [inhibitor, single point] |
| C=CCOC(=O)C1=C(C)NC(SCC(=O)NC(=O)OCC)=C(C#N)C1c1cccnc1 (stereo not given) | inconclusive: 31.6 µM [inhibitor, single point] and inconclusive: 16.4 µM [inhibitor, single point] |
| O=C(NC1CCCC1)C(c1ccc(F)cc1)N(C(=O)Cc1cccs1)c1ccc2c(c1)OCCO2 (stereo not given) | inconclusive: 9.2 µM [inhibitor, partial curve] |
| COc1ccc(NS(=O)(=O)c2cccc(C(=O)O)c2)cc1 | inactive |
| CC(=O)OCC=C1CCC2C3CC(C)C4=CC(=O)CCC4(C)C3C(O)CC12C (stereo not given) | inconclusive: 18.4 µM [inhibitor, single point] |
| Cc1ccc2[nH]c3c(=O)n(N)c(=O)[nH]c3c2c1 | inactive |
| CC(Oc1cc2oc(=O)c3c(c2cc1Cl)CCC3)C(=O)N1C[C@H]2C[C@@H](C1)c1cccc(=O)n1C2 (stereo not given in full) | inactive |
| COc1ccc(NC(=O)CN2CCN(CC(=O)Nc3ccc(F)cc3)CC2)c(OC)c1 | inconclusive: 23.1 µM [inhibitor, single point] |
| C=CCN1C(=O)C2(OCCCO2)c2cc(C)ccc21 | inactive |
| COCCNC(=O)c1onc(CCl)c1C(=O)OC | inconclusive: 29.1 µM [inhibitor, single point] |
| COc1cc(NC(=O)c2cccs2)c(OC)cc1NC(=O)c1ccco1 | inactive |
| N#CC(=C1NC(=O)c2ccccc21)c1nc2ccccc2n1CCO | active: 8.2 µM |
| O=C(c1ccco1)N(Cc1cccnc1)c1nc2c(F)cc(F)cc2s1 | inconclusive: 29.1 µM [inhibitor, single point] |
| O=C(Cn1cnc2ccccc2c1=O)NNC(=O)c1ccccc1 | inactive |
| COc1cccc2cc(-c3nnc(SCC(=O)NCc4ccccc4)n3C)oc12 | inconclusive: 20.6 µM [inhibitor, single point] |
| COc1ccc(C(C(=O)NCc2ccccc2)N(C(=O)c2snc(C(N)=O)c2N)c2ccccc2OC)cc1OC (stereo not given) | inconclusive: 20.6 µM [inhibitor, single point] |
| Cc1ccc(NC(=O)CN(C)C(=O)Cc2ccc(Cl)c(Cl)c2)cc1 | inconclusive: 29.1 µM [inhibitor, single point] |
| Cc1cccc(OC(=O)c2cccnc2)c1 | inactive |
| COC(=O)c1c(NC(=O)c2ccc(S(=O)(=O)N3CCOCC3)cc2)sc2c1CCN(C)C2 | inconclusive: 29.1 µM [inhibitor, single point] |
| Cc1ccccc1CNC(=O)c1ccc2nc(SCc3ccc(F)cc3)n(C)c2c1 | inconclusive: 14.6 µM [inhibitor, partial curve] |
| Cc1ccc(C(C(=O)NCC2CCCO2)N(C(=O)c2snc(C(N)=O)c2N)c2ccc(F)cc2)o1 (stereo not given) | inconclusive: 16.4 µM [inhibitor, single point] |

| Structure (SMILES) | Potency |
| --- | --- |
| CC(C)(C)c1nnc2sc(SCC(=O)N3CCCc4ccccc43)nn2c1=O | active: 23.1 µM |
| CCOCCCNC(=O)C(c1ccccc1)N(Cc1ccc2c(c1)OCO2)C(=O)c1ccc(NC(C)=O)cc1 (stereo not given) | inactive |
| CC(C)Nc1nc2ccccc2c(=O)[nH]1 | inconclusive: 25.9 µM [inhibitor, single point] |
| CCOC(=O)CSc1ccc2ccccc2n1 | inactive |
| CSc1nc(N(CCO)CCO)c2sc3nc(-c4ccco4)c4c(c3c2n1)CCC4 | active: 11.6 µM |
| CC(=O)c1cc2c(O)c(O)ccc2o1 | inconclusive: 25.9 µM [inhibitor, single point] |
| Cc1cc(C)cc(NC(=O)COC(=O)c2cc(C)oc2C)c1 | inactive |
| C/C(=C\C(=O)c1ccc(Br)cc1)NCc1ccc(C)cc1 | inconclusive: 23.1 µM [inhibitor, single point] |
| Cc1cccc2cc(CN(Cc3ccccc3)Cc3nnnn3Cc3ccccc3)c(=O)[nH]c12 | active: 12.6 µM |
| CCCOc1ccc(C2NC(=O)CCC2[N+](=O)[O-])cc1 (stereo not given) | inconclusive: 16.4 µM [inhibitor, single point] |
| Cc1ccc(CN2C(=O)CCC2(C)c2nnnn2-c2ccc3c(c2)OCCO3)cc1 (stereo not given) | inconclusive: 16.4 µM [inhibitor, single point] |
| O=C(/C=C/c1ccco1)NCC(=O)N/N=C/c1ccccc1[N+](=O)[O-] | inconclusive: 20.6 µM [inhibitor, single point] |
| Cc1cc(C)c(C(=O)NCCCN2CCOCC2)c(C)c1 | inactive |
| COc1ccc(S(=O)(=O)N(C)C[C@@H]2Oc3cc(C#CC4CCCCC4)ccc3S(=O)(=O)N([C@@H](C)CO)C[C@@H]2C)cc1 | active: 18.4 µM |
| COc1ccc(CNc2nc(-c3cccnc3)nn2C(=O)c2ccco2)cc1 | inconclusive: 29.1 µM [inhibitor, partial curve, poor fit] |
| CCCOc1ccc(-c2cccc(NS(=O)(=O)c3ccccc3)c2)nn1 | active: 23.1 µM |
| CC(C)c1ccc(NC(=O)C2(C)Cc3c(-c4ccc(C(N)=O)cc4)ccnc3O2)cc1 (stereo not given) | active: 16.4 µM |
| COc1ccccc1N1CCN(CC(O)c2ccc3cc[nH]c3c2)CC1 (stereo not given) | inconclusive: 29.1 µM [inhibitor, single point] |
| O=C(CCCN1CCN(c2ccccc2)CC1)c1ccc(F)cc1 | inconclusive: 18.4 µM [inhibitor, single point] |
| Cc1ccccc1CN1C(=O)c2ccccc2S(=O)c2ccc(C(=O)NCc3ccc(Cl)cc3)cc21 (stereo not given) | inconclusive: 14.6 µM [inhibitor, partial curve] |
| COC(=O)c1ccc(C(=O)N2CCCC(N3CCN(c4ccc(F)cc4)CC3)C2)nc1 (stereo not given) | inactive |
| O=C(NCc1ccco1)c1ccc(S(=O)(=O)N2CCCCC2)cc1 | inconclusive: 29.1 µM [inhibitor, single point] |
